Variants at the floor of the assay are shown more often than the library holds them.
B1: TPR 5TU (parent)
chain: GGAUCUUCUCGAUCUAACAAAAAAGACAAAUCUGCCACAAAGCUUGAGAGCAUCUUCGGAUGCAGAGGCGGCAGCCUUCGGUGGCGCGAUAGCGCCAACGUUCUCAACUAUGACACGCAAAACGCGUGCUCCGUUGAAUGGAGUUUAUCAUG

Variants of: B1
Test: polymerase ribozyme fitness, log enrichment relative to wild type (log ratio); higher = more active; in vitro selection for triplet polymerase activity
Procedure, shortened: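 Fitness measures genotype enrichment against wild-type enrichment on a logarithmic scale, with inverse-variance-weighted averaging of replicates. The logarithm is base 2, and genotypes were kept only with ≥10 input reads and ≥1 read per output in Illumina sequencing. The sequenced libraries came from one triplicate in vitro selection round, including frozen incubation at −7 °C, of PCR-built, transcribed mutant libraries of each subunit of a heterodimeric triplet polymerase ribozyme.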
With A21C C103G U139C G141C A147C the “polymerase ribozyme fitness (log ratio)” value was no more than -4.2. In the case of A22U G46C C69A A89U U139C U148C, the “polymerase ribozyme fitness (log ratio)” value is reported as no more than -4.2. With A21U A97U C103A A113U U134C the “polymerase ribozyme fitness (log ratio)” value was no more than -4.2. With A22U A52G A73C C79G U82A G84C C96G A107C the “polymerase ribozyme fitness (log ratio)” value was no more than -4.2. With A22C C32U C51A C75A the “polymerase ribozyme fitness (log ratio)” value was no more than -4.2. In the case of A23G A28U C36U U77C C87A G141C, the “polymerase ribozyme fitness (log ratio)” value is reported as no more than -4.2. With A21G A66C C96A A97G C103A C125A U144A the “polymerase ribozyme fitness (log ratio)” value was no more than -4.2. With A21G A29C C85G A121G A138G U151C the “polymerase ribozyme fitness (log ratio)” value was no more than -4.2. With A23C C63G C103G A119U the “polymerase ribozyme fitness (log ratio)” value was no more than -4.2. With A22U C27U C36U U55G C57U G74A C95G G100A G140A the “polymerase ribozyme fitness (log ratio)” value was no more than -4.2. With A23G C54U C87A the “polymerase ribozyme fitness (log ratio)” value was no more than -4.2. In the case of A23U A30G U55A G94A C103A G143A U148A, the “polymerase ribozyme fitness (log ratio)” value is reported as no more than -4.2. With A23C U78A C85A U151A G152U the “polymerase ribozyme fitness (log ratio)” value was no more than -4.2. In the case of A22U A39U G42C C76U U78A C85G C116A G117U, the “polymerase ribozyme fitness (log ratio)” value is reported as no more than -4.2. With A22U G58C C105U A107C the “polymerase ribozyme fitness (log ratio)” value was no more than -4.2. In the case of A23G A113U A119U, the “polymerase ribozyme fitness (log ratio)” value is reported as no more than -4.2. For A23U C38G C54U A89U, the “polymerase ribozyme fitness (log ratio)” value was no more than -4.2. For A23U C54U A66G U90C G94C U102G C103U, the “polymerase ribozyme fitness (log ratio)” value was no more than -4.2. With A22U G62A U82G C93G C108A G126C the “polymerase ribozyme fitness (log ratio)” value was no more than -4.2. For A21C A107G A115G C118U, the “polymerase ribozyme fitness (log ratio)” value was no more than -4.2. With A20U C51A G86C the “polymerase ribozyme fitness (log ratio)” value was no more than -4.2. In the case of A20U U45C U53A G92A U135C A147U, the “polymerase ribozyme fitness (log ratio)” value is reported as no more than -4.2. For A21U C99A A106C C116U U135C, the “polymerase ribozyme fitness (log ratio)” value was no more than -4.2. With A21U A26C A60U U104A the “polymerase ribozyme fitness (log ratio)” value was no more than -4.2. With A22G A47U C54U C93G U130A A147C the “polymerase ribozyme fitness (log ratio)” value was no more than -4.2. With A23G A52C C85A A107U C108U U145G U151C the “polymerase ribozyme fitness (log ratio)” value was no more than -4.2. With A22C A97U A138C the “polymerase ribozyme fitness (log ratio)” value was no more than -4.2. In the case of A23C C54A U55A A91G A106G, the “polymerase ribozyme fitness (log ratio)” value is reported as no more than -4.2. For A23G G25C A37C A39C A41C C87A A115G C123G A138U G140U, the “polymerase ribozyme fitness (log ratio)” value was no more than -4.2. In the case of A20U A28U U31A A52G G74A G94U A98G, the “polymerase ribozyme fitness (log ratio)” value is reported as no more than -4.2. With A20U A41G U44A G67A C79U G86C the “polymerase ribozyme fitness (log ratio)” value was no more than -4.2. In the case of A21G A28U G92U A120U, the “polymerase ribozyme fitness (log ratio)” value is reported as no more than -4.2. In the case of A22U G50C C54G C75U U102G A107U C116G, the “polymerase ribozyme fitness (log ratio)” value is reported as no more than -4.2. With A21U C27A G68A C69U C85A A147G the “polymerase ribozyme fitness (log ratio)” value was no more than -4.2. With A23U A28U U44A A47C G50A C93A A98G C116G G126A the “polymerase ribozyme fitness (log ratio)” value was no more than -4.2. With A22U C43U G50C G80A A110G U144C U148G the “polymerase ribozyme fitness (log ratio)” value was no more than -4.2. With A22C C51G U53G C103G the “polymerase ribozyme fitness (log ratio)” value was no more than -4.2. In the case of A22U G42U G59C G92A A106U G136A U151G, the “polymerase ribozyme fitness (log ratio)” value is reported as no more than -4.2. For A22U A49C C87G A137U, the “polymerase ribozyme fitness (log ratio)” value was no more than -4.2. With A22G C54U A91U G152A the “polymerase ribozyme fitness (log ratio)” value was no more than -4.2. In the case of A23U C27G C51G G58A G83C C87U C95U A97C C105U A150G, the “polymerase ribozyme fitness (log ratio)” value is reported as no more than -4.2. For A20U G48A G50A G67A G88A C95A C149U, the “polymerase ribozyme fitness (log ratio)” value was no more than -4.2. In the case of A23G U56G G68U U90A C95U C105A G117U, the “polymerase ribozyme fitness (log ratio)” value is reported as no more than -4.2. With A23G U31C G42A U56A G62A C103U A121G the “polymerase ribozyme fitness (log ratio)” value was no more than -4.2. In the case of A22C U31C A47G C103A A110G C118G, the “polymerase ribozyme fitness (log ratio)” value is reported as no more than -4.2. For A23G G46A C103U A121U G133A G140U, the “polymerase ribozyme fitness (log ratio)” value was no more than -4.2. In the case of A22C A37C G42C C79U C87G G117U A150C, the “polymerase ribozyme fitness (log ratio)” value is reported as no more than -4.2. For A22C G50A C87A C105G, the “polymerase ribozyme fitness (log ratio)” value was no more than -4.2. In the case of A22G C43U U44C C54A A73U C87U A147C A150G, the “polymerase ribozyme fitness (log ratio)” value is reported as no more than -4.2. With A21U A52C G71U G94A C105A the “polymerase ribozyme fitness (log ratio)” value was no more than -4.2. For A21G G86A G88C C96G G100U C116A, the “polymerase ribozyme fitness (log ratio)” value was no more than -4.2. In the case of A21U C85U G94C C96A C105G, the “polymerase ribozyme fitness (log ratio)” value is reported as no more than -4.2. With A20U A40U C54A C72A U111C C114G the “polymerase ribozyme fitness (log ratio)” value was no more than -4.2. In the case of A21U C43A U44G C95A A113C, the “polymerase ribozyme fitness (log ratio)” value is reported as no more than -4.2. With A20U A49U C76A C87A A138U A147U the “polymerase ribozyme fitness (log ratio)” value was no more than -4.2. For A21C U44C C51U C54G G94C U144C C149G, the “polymerase ribozyme fitness (log ratio)” value was no more than -4.2. In the case of A21U C35G G62U G84U C95G A106G U139G, the “polymerase ribozyme fitness (log ratio)” value is reported as no more than -4.2. With A21C A29U C38G C72G C95U U130C the “polymerase ribozyme fitness (log ratio)” value was no more than -4.2. With A21C G25U U44A G84C A97G G133A the “polymerase ribozyme fitness (log ratio)” value was no more than -4.2. In the case of A22C U33G U146A, the “polymerase ribozyme fitness (log ratio)” value is reported as no more than -4.2. In the case of A21C A91C, the “polymerase ribozyme fitness (log ratio)” value is reported as no more than -4.2. In the case of A20U G70U G88C, the “polymerase ribozyme fitness (log ratio)” value is reported as no more than -4.2. In the case of A22G C43G C54A C87A C108A, the “polymerase ribozyme fitness (log ratio)” value is reported as no more than -4.2. With A22U A23U G25A C38A G86A the “polymerase ribozyme fitness (log ratio)” value was no more than -4.2. With A23G C57G C85G C118A G126A the “polymerase ribozyme fitness (log ratio)” value was no more than -4.2. In the case of A21C U31A C54G U78A A91C A115C, the “polymerase ribozyme fitness (log ratio)” value is reported as no more than -4.2. For A21G U53A G74A A89G G94C C131A, the “polymerase ribozyme fitness (log ratio)” value was no more than -4.2. In the case of A21G C93U C103G A122C U127G U146A, the “polymerase ribozyme fitness (log ratio)” value is reported as no more than -4.2. For A21G C27G U33G A41C A97G C99G C105G A115U, the “polymerase ribozyme fitness (log ratio)” value was no more than -4.2. In the case of A21G A49C, the “polymerase ribozyme fitness (log ratio)” value is reported as no more than -4.2. For A20U A37C G128A, the “polymerase ribozyme fitness (log ratio)” value was no more than -4.2. With A22U A26G C57A A66G G84A C103U the “polymerase ribozyme fitness (log ratio)” value was no more than -4.2. With A21C U31A C79G the “polymerase ribozyme fitness (log ratio)” value was no more than -4.2. With A23U A41U G48U U55A C57G G88U A107G the “polymerase ribozyme fitness (log ratio)” value was no more than -4.2. With A21G A26C A52U C129G U135C the “polymerase ribozyme fitness (log ratio)” value was no more than -4.2. In the case of A21U A29U A39U U146A, the “polymerase ribozyme fitness (log ratio)” value is reported as no more than -4.2. With A22U A30U A39U C54A C93U A97U the “polymerase ribozyme fitness (log ratio)” value was no more than -4.2. With A20U G50A C95G the “polymerase ribozyme fitness (log ratio)” value was no more than -4.2. With A23G A37C A66G C75G C93G the “polymerase ribozyme fitness (log ratio)” value was no more than -4.2. For A21G C76A G88A G126A C131U A147C, the “polymerase ribozyme fitness (log ratio)” value was no more than -4.2. With A22G G50U U56G U78G A106U C108U the “polymerase ribozyme fitness (log ratio)” value was no more than -4.2. With A21U A52C C54U C93U A107G U148C the “polymerase ribozyme fitness (log ratio)” value was no more than -4.2. For A21U U53A G65A U77A G88U G92C, the “polymerase ribozyme fitness (log ratio)” value was no more than -4.2.

From the RNAGym collection of RNA variant scans (doi:10.1073/pnas.2313332121)
